{
  "source": "PubChem BioAssay AID2546",
  "about": "(National Center for Advancing Translational Sciences (NCATS), 2010)",
  "note": "“And” between values parts separate entries of the source, which are not always exact repeats. Equal values may be shown once. The whole screen tested about 310,000 compounds, of which about 11,000 (3.5%) were called active. The inconclusive results got no clear call from the source; some entries with a clear call stand among them for comparison. Calls come from the whole dose curve; as a rule, active = well fitted inhibition curve with a large enough effect; inconclusive = small, poorly fitted or top-dose-only effect, or effect the other way; inactive = flat fitted curve, though single readings scatter. Potencies of inconclusive entries are doubtful fits and often do not repeat. % is set by controls: 0 for no effect and ±100 for the full control effect; potency is the fitted concentration of half-maximal effect; tags give direction and shape of the fitted curve.",
  "data": [
    {"experiment": "VP16 counterscreen qHTS for inhibitors of ROR gamma transcriptional activity;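 note: Gal4-VP16 expression switched on by copper sulfate through the metallothionein promoter; nearly all actives have a fitted effect of over 50% in size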", "settings": "Drosophila S2 Gal4-VP16 UAS-luciferase, luminescence, 20 h; series mostly up to 53.6 µM; activity, negative = inhibition: at the top concentration", "values": [
      {"smiles": "Cc1ncc([N+](=O)[O-])n1CCOc1nonc1N", "Potency": "inconclusive: 0.178 µM [inhibitor, full curve, poor fit]"},
      {"smiles": "O=C(N[C@@H]1CN2CCC1CC2)c1cc(Cl)cc2[nH]cnc12", "activity, negative = inhibition": "inactive: 2.65%"},
      {"smiles": "N#CC1=C(N)Oc2c(c(=O)sc3ccccc23)C1c1cccnc1", "note": "(stereo unspecified)", "activity, negative = inhibition": "inactive: -1.42%"},
      {"smiles": "CC1=CC(c2ccccc2)NC(=S)N1", "note": "(stereo unspecified)", "Potency": "inconclusive: 35.5 µM [inhibitor, single point]"},
      {"smiles": "CC1(C)C(C=C(Cl)Cl)C1C(=O)OC(C#N)c1cccc(Oc2ccccc2)c1", "note": "(stereo unspecified)", "activity, negative = inhibition": "inactive: -5.96%"},
      {"smiles": "Oc1cc(Cl)c(Cl)c(Cl)c1", "Potency": "inconclusive: 35.5 µM [inhibitor, single point]"},
      {"smiles": "CC(C)n1cnc2c(C(=O)N[C@H]3CN4CCC3CC4)cc(Cl)cc21", "activity, negative = inhibition": "inactive: -11.3%"},
      {"smiles": "Cn1cc([N+](=O)[O-])c(C(=O)Nc2ccc3c(C(F)(F)F)cc(=O)oc3c2)n1", "activity, negative = inhibition": "inactive: 2.77%"},
      {"smiles": "C/C(=N\\NC(=O)c1ccncc1)c1c(O)n(Cc2ccccc2)c(=O)[nH]c1=O", "Potency": "inconclusive: 15.8 µM [inhibitor, partial curve]"},
      {"smiles": "CCCCSC1=NN1c1nc(N)nc(C)c1CC", "Potency": "inconclusive: 35.5 µM [inhibitor, single point]"},
      {"smiles": "N#CC(Cl)Cl", "Potency": "inconclusive: 8.91 µM [inhibitor, partial curve]"},
      {"smiles": "Cc1ccccc1N1C(=O)NC(=O)/C(=C\\c2ccc3c(c2)CCCN3Cc2ccccc2)C1=O", "Potency": "inconclusive: 5.62 µM [activator, single point]"},
      {"smiles": "COc1ccccc1OCCCn1cc(C(C)=O)c2ccccc21", "Potency": "inconclusive: 12.6 µM [inhibitor, partial curve]"},
      {"smiles": "Clc1ccc(-c2nc3ccc(Cl)cn3c2CN2CCOCC2)cc1", "Potency": "inconclusive: 35.5 µM [inhibitor, single point]"},
      {"smiles": "CC(C)(C)n1cc(C(=O)c2ccc3ccccc3c2O)cn1", "Potency": "inconclusive: 22.4 µM [inhibitor, single point]"},
      {"smiles": "N[C@@H](Cc1cc(Br)c(O)c(Br)c1)C(=O)O", "activity, negative = inhibition": "inactive: -2.9%"},
      {"smiles": "CSc1ccccc1C(=O)C1CCCN(Cc2cccc(C)n2)C1", "note": "(stereo unspecified)", "Potency": "active: 20 µM"},
      {"smiles": "Cc1cc(O)c2c3c(c(=O)oc2c1)CCC(C)C3", "note": "(stereo unspecified)", "Potency": "active: 20 µM"},
      {"smiles": "CC(C)(C)OO", "Potency": "inactive"},
      {"smiles": "N#CC(C#N)=Cc1ccc(O)cc1", "Potency": "inconclusive: 35.5 µM [inhibitor, single point]"},
      {"smiles": "COc1ccccc1CNCCc1ccc(F)cc1", "activity, negative = inhibition": "inactive: 10.6%"},
      {"smiles": "Nc1nc2ccc(Cl)cc2c2nc(-c3ccco3)nn12", "Potency": "inconclusive: 7.94 µM [inhibitor, partial curve, poor fit] and inconclusive: 631 nM [inhibitor, single point]"},
      {"smiles": "CC(c1nc2ccccc2c(=O)[nH]1)N(C)CCOc1ccc(Cl)cc1", "note": "(stereo unspecified)", "Potency": "inconclusive: 25.1 µM [inhibitor, single point]"},
      {"smiles": "CC(C)(Cc1c[nH]c2ccc(Cl)cc12)NCCOc1ccccc1OCC1CC1", "Potency": "active: 15.8 µM"},
      {"smiles": "c1nc[n]([Sn]([CH]2CCCCC2)([CH]2CCCCC2)[CH]2CCCCC2)n1", "Potency": "active: 22.4 µM"},
      {"smiles": "COc1cccc(N2C(=O)NC(=O)/C(=C/c3ccc([N+](=O)[O-])s3)C2=O)c1", "activity, negative = inhibition": "inactive: -4.97%"},
      {"smiles": "CCOC(=O)c1c(C=O)c2ccccc2n1Cc1ccccc1", "activity, negative = inhibition": "inactive: 3%"},
      {"smiles": "Cc1ccc(-c2n[nH]c(=S)n2-c2ccccc2)cc1", "Potency": "inconclusive: 6.31 µM [inhibitor, single point]"},
      {"smiles": "COc1ccc(-n2c(/C=C/c3ccc4c(c3)OCO4)nc3ccccc3c2=O)cc1", "Potency": "inconclusive: 3.98 µM [inhibitor, single point]"},
      {"smiles": "Cc1ccc(NC(=O)OC(C)CNC(=O)Oc2cccc(C)c2)cc1", "note": "(stereo unspecified)", "Potency": "inconclusive: 0.355 µM [activator, partial curve]"},
      {"smiles": "COC(=O)[C@]12OC[C@]34C([C@@H](O)[C@@H]1O)[C@]1(C)CC(=O)C(O)=C(C)[C@@H]1C[C@H]3OC(=O)[C@H](O)[C@@H]24", "note": "(stereo partly specified)", "Potency": "active: 0.224 µM"},
      {"smiles": "O=C(Nc1ccccc1)N1CC2(CCN(C(=O)Oc3ccccc3)CC2)C1", "activity, negative = inhibition": "inactive: -10.3%"},
      {"smiles": "CC1(C)N(O)C2CCCCC2N1O", "note": "(stereo unspecified)", "Potency": "inconclusive: 35.5 µM [inhibitor, single point]"},
      {"smiles": "CC/C(=N\\NC(=O)c1ccccc1O)c1c(O)n(Cc2ccccc2)c(=O)[nH]c1=O", "Potency": "inconclusive: 35.5 µM [inhibitor, single point]"},
      {"smiles": "NC(=S)N/N=C/c1coc2ccccc2c1=O", "Potency": "inconclusive: 35.5 µM [inhibitor, single point]"},
      {"smiles": "CC(C)(C)NC(=S)/N=C(\\N)N[N+](=O)[O-]", "Potency": "inconclusive: 35.5 µM [inhibitor, single point]"},
      {"smiles": "CC1CCN(CC(=O)c2ccccc2Cl)CC1", "Potency": "inconclusive: 35.5 µM [inhibitor, single point]"},
      {"smiles": "O=C(CCN1CCCCC1)Nc1ccc(Br)cc1C(=O)c1ccccc1", "activity, negative = inhibition": "inactive: -1.29%"},
      {"smiles": "O=C1NC(=O)N(c2ccc3c(c2)OCO3)C(=O)/C1=C/c1cccs1", "Potency": "inconclusive: 35.5 µM [activator, single point]"},
      {"smiles": "CCOC(=O)c1c(-n2c(C)cc(/C=C3\\C(=O)NC(=O)N(C)C3=O)c2C)sc2c1CCCC2", "activity, negative = inhibition": "inactive: 1.76%"},
      {"smiles": "CC(C)CCCC1(C)C=Cc2c(O)c3c(c(CCC(C)C)c2O1)OC12C(CC4CC1C(C)(C)OC2(CCC(C)C(=O)O)C4O)C3=O", "note": "(stereo unspecified)", "activity, negative = inhibition": "inactive: -4.68%"},
      {"smiles": "COC(=O)C(O)C(O)(CCC(C)C)C(=O)OC1C(OC)=CC23CCCN2CCc2cc4c(cc2C13)OCO4", "note": "(stereo unspecified)", "Potency": "inconclusive: 0.224 µM [inhibitor, full curve, poor fit]"},
      {"smiles": "COc1ccc(-c2nc(NC(=O)Cn3c(=O)oc4ccccc43)sc2C)cc1", "Potency": "inconclusive: 35.5 µM [inhibitor, single point]"},
      {"smiles": "COC(=O)c1ccc(N2C(=O)CC(N3CCC(O)(c4ccc(Br)cc4)CC3)C2=O)cc1", "note": "(stereo unspecified)", "Potency": "inconclusive: 35.5 µM [inhibitor, single point]"},
      {"smiles": "O=C(Nc1ccc(Oc2ccc(Cl)cc2)c(Cl)c1)c1cc(I)cc(I)c1O", "Potency": "inconclusive: 17.8 µM [inhibitor, single point]"},
      {"smiles": "C=C1C(=O)O[C@@H]2C[C@@H](C)[C@H]3C=CC(=O)[C@]3(O)C[C@@H]12", "Potency": "inconclusive: 35.5 µM [inhibitor, single point]"}
    ]}
  ]
}
